According to the supplement of paper PMC9446081:
Out of some 39,000 compounds screened, about 220 (0.56%) showed activity. This is one part of the list.

The compounds below were run on Escherichia coli K-12 BW25113 (assay: relative growth (OD600 normalised to plate interquartile mean) (fraction); higher = less growth inhibition, active = 0.2 or less). Conditions: 50 µM; LB; incubation time: overnight (16-24 h).
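Further: static incubation at 37 °C against the wild-type strain, values averaged over two biological replicates.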

Row | SMILES | relative growth
1 | COc1ccc(CN(C)C[C@H]2OCCCC[C@H](C)Oc3ccc(NC(=O)c4ccccc4)cc3C(=O)N([C@@H](C)CO)C[C@@H]2C)cc1 | inactive: 0.989
2 | C[C@H](CO)N1C[C@H](C)[C@H](CN(C)C(=O)Nc2ccc(C(F)(F)F)cc2)OCCCC[C@H](C)Oc2ccc(NC(=O)Nc3ccc(C(F)(F)F)cc3)cc2C1=O | inactive: 1.01
3 | C[C@@H]1CN([C@@H](C)CO)C(=O)c2cc(NC(=O)Cn3cnnn3)ccc2O[C@H]1CN(C)Cc1ccc(Cl)c(Cl)c1 | inactive: 1.02
4 | C[C@H]1CN([C@@H](C)CO)C(=O)c2cc(NS(C)(=O)=O)ccc2O[C@@H]1CN(C)C(=O)NC1CCCCC1 | inactive: 0.984
5 | O=C(O)[C@H]1C[C@@H]2C[C@H]1CC[C@@H]2O | inactive: 0.997
6 | C[C@H](CO)N1C[C@H](C)[C@H](CN(C)CC2CCCCC2)Oc2ccc(NC(=O)Nc3cccc4ccccc34)cc2C1=O | inactive: 1
7 | Cc1nnc(N2CCC[C@]3(CN(C(=O)CO)CCO3)C2)o1 | inactive: 1.01
8 | C[C@H](O)C#Cc1ccc2c(c1)O[C@@H](CN(C)C)[C@@H](C)CN([C@H](C)CO)S2(=O)=O | inactive: 1
9 | C[C@H](CO)N1C[C@H](C)[C@H](CN(C)C(=O)NC2CCCCC2)Oc2ccc(NC(=O)Cn3cnnn3)cc2CC1=O | inactive: 1
10 | CC(C)NC(=O)N(C)C[C@H]1Oc2c(NC(=O)C3CCCCC3)cccc2C(=O)N([C@@H](C)CO)C[C@@H]1C | inactive: 0.953
11 | C[C@H]1CN([C@@H](C)CO)C(=O)c2cccc(NC(=O)CCCCCC(=O)Nc3ccccc3N)c2O[C@@H]1CN(C)S(=O)(=O)c1cn(C)cn1 | inactive: 0.967
12 | CO[C@H]1CCCNC1 | inactive: 0.997
13 | C[C@@H]1CN([C@H](C)CO)C(=O)Cc2cc(NC(=O)Cc3ccccc3)ccc2O[C@@H]1CN(C)S(=O)(=O)c1cn(C)cn1 | inactive: 0.981
14 | C[C@@H]1CCCCO[C@@H](CN(C)C)[C@@H](C)CN([C@H](C)CO)C(=O)c2cc(NC(=O)Nc3cccc4ccccc34)ccc2O1 | inactive: 1
15 | C[C@H]1CCCCO[C@H](CN(C)C(=O)Nc2ccc3c(c2)OCO3)[C@@H](C)CN([C@@H](C)CO)C(=O)c2cc(NC(=O)Nc3ccccc3)ccc2O1 | inactive: 1.05
16 | CC(C)C[C@@H]1C(=O)O[C@H](C)C(=O)N(C)[C@@H](CC(C)C)C(=O)O[C@H](Cc2ccc(N3CCOCC3)cc2)C(=O)N(C)[C@@H](CC(C)C)C(=O)O[C@H](C)C(=O)N(C)[C@@H](CC(C)C)C(=O)O[C@H](Cc2ccc(N3CCOCC3)cc2)C(=O)N1C | inactive: 0.978
17 | C[C@H]1CN([C@@H](C)CO)C(=O)Cc2cc(NS(=O)(=O)c3cccs3)ccc2O[C@H]1CN(C)CC1CC1 | inactive: 0.929
18 | Cc1noc(C)c1S(=O)(=O)N(C)C[C@H]1OCc2cn(nn2)CCCC(=O)N([C@@H](C)CO)C[C@H]1C | inactive: 1.01
19 | COc1ccc(CN(C)C[C@@H]2OCCCC[C@H](C)Oc3ccc(NS(=O)(=O)c4ccccc4)cc3C(=O)N([C@H](C)CO)C[C@@H]2C)cc1 | inactive: 0.992
20 | CC(C)NC(=O)Nc1cccc2c1O[C@@H](CN(C)S(=O)(=O)c1ccccc1)[C@H](C)CN([C@@H](C)CO)C2=O | inactive: 1.01
21 | COc1cccc(-c2ccc3c(c2)O[C@H](CN(C)C(=O)C2CCOCC2)[C@H](C)CN([C@H](C)CO)S3(=O)=O)c1 | inactive: 1.01

Row | SMILES | relative growth
22 | C[C@H]1CN([C@@H](C)CO)C(=O)c2cc(NS(=O)(=O)c3ccc(F)cc3)ccc2O[C@@H]1CN(C)Cc1ccc(Oc2ccccc2)cc1 | inactive: 1
23 | CC(C)[Si](C#C[Si](C(C)C)(C(C)C)C(C)C)(O[C@H](C)c1cn(Cc2cccc(Cl)c2)nn1)C(C)C | inactive: 1
24 | C[C@@H]1CN([C@H](C)CO)C(=O)c2cc(NC(=O)Nc3ccc(C(F)(F)F)cc3)ccc2O[C@@H]1CN(C)C(=O)Nc1ccc(F)cc1 | inactive: 1
25 | Cc1ccc(S(=O)(=O)N(C)C[C@@H]2Oc3ccc(NC(=O)c4ccncc4)cc3CC(=O)N([C@@H](C)CO)C[C@H]2C)cc1 | inactive: 1.02
26 | NCc1ccccc1CC(=O)NC1C(=O)N2C(C(=O)O)=C(CSc3nnnn3CC(=O)O)CSC12 (configuration not stated) | active: 0.0453
27 | c1ccc(-c2nn(-c3ccccc3)c3c2cnc2ccccc23)cc1 | inactive: 0.956
28 | C=CCOC(=O)[C@@H]1[C@@H]2C=C[C@@]3(O2)[C@@H]1C(=O)N(CCCCCCO)[C@H]3C(=O)N(CC=C)Cc1ccccc1 | inactive: 1.03
29 | Cc1ccc(S(=O)(=O)N(C)C[C@@H]2Oc3ccc(NS(=O)(=O)c4c(C)noc4C)cc3C(=O)N([C@@H](C)CO)C[C@@H]2C)cc1 | inactive: 0.993
30 | CN1CCN(C(=O)C[C@@H]2CC[C@H]3[C@@H](COC[C@@H](O)CN3C(=O)C3CCCC3)O2)CC1 | inactive: 1.01
31 | O=C(C[C@H]1C[C@H]2c3cc(NS(=O)(=O)c4ccc(F)cc4)ccc3O[C@H]2[C@H](CO)O1)NCCc1ccccc1 | inactive: 1.02
32 | C[C@@H]1CN([C@@H](C)CO)C(=O)c2cc(NC(=O)CCCN(C)C)ccc2O[C@@H]1CN(C)Cc1ccc(Oc2ccccc2)cc1 | inactive: 0.957
33 | C[C@@H]1CCCCO[C@@H](CN(C)Cc2ccc(C(F)(F)F)cc2)[C@@H](C)CN([C@@H](C)CO)C(=O)c2cc(N(C)C)ccc2O1 | inactive: 1.05
34 | CCCCCCCCCCCCCCCC[N+](C)(C)Cc1ccccc1.[Cl-] | active: 0.0933
35 | C[C@@H]1CN([C@@H](C)CO)C(=O)c2cc(NC(=O)Nc3ccccc3)ccc2O[C@H]1CN(C)C(=O)Nc1ccc(C(F)(F)F)cc1 | inactive: 0.991
36 | C[C@H](O)C#Cc1cnc2c(c1)C(=O)N([C@@H](C)CO)C[C@@H](C)[C@H](CN(C)Cc1cncnc1)O2 | inactive: 0.996
37 | C[C@@H]1CN([C@H](C)CO)C(=O)c2cccc(NC(=O)C3CCOCC3)c2O[C@@H]1CN(C)S(=O)(=O)c1cccs1 | inactive: 0.98
38 | C[C@H](CO)N1C[C@H](C)[C@@H](CN(C)Cc2ccc(C(=O)O)cc2)Oc2ccc(NC(=O)Cn3cnnn3)cc2C1=O | inactive: 0.976
39 | Cc1ccc(S(=O)(=O)N[C@H]2C=C[C@H](CC(=O)NCCN3CCCCC3)O[C@@H]2CO)cc1 | inactive: 1.01
40 | C[C@H](CO)N1C[C@H](C)[C@@H](CN(C)S(=O)(=O)c2ccccc2)Oc2c(NS(=O)(=O)c3cccs3)cccc2C1=O | inactive: 0.985
41 | C[C@@H]1CCCCO[C@@H](CN(C)S(C)(=O)=O)[C@H](C)CN([C@@H](C)CO)C(=O)c2cc(NS(=O)(=O)c3ccc(F)cc3)ccc2O1 | inactive: 1.01
42 | OC(Cn1cncn1)(Cn1cncn1)c1ccc(F)cc1F | inactive: 0.998

Row | SMILES | relative growth
43 | O=C(NCc1nc2ccccc2[nH]1)C1=C[C@@H](c2csc3ccccc23)C[C@@H](OCc2ccc(CO)cc2)O1 | inactive: 1.01
44 | C[C@H](CO)N1C[C@H](C)[C@@H](CN(C)C(=O)c2ccncc2)OCCCC[C@H](C)Oc2ccc(NC(=O)C3CCCCC3)cc2C1=O | inactive: 0.998
45 | CCS(=O)(=O)N1CCC[C@]2(C(=O)NCC3CC3)CN(Cc3cnn(C)c3)C[C@H]2C1 | inactive: 1.02
46 | C[C@@H](CO)N1C(=O)[C@@H]2[C@H]3C(=O)OCCC=C[C@H]3O[C@]23C=CCN(Cn2nnc4ccccc42)C(=O)[C@@H]13 | inactive: 0.984
47 | C[C@H]1CN([C@@H](C)CO)S(=O)(=O)c2ccc(-c3cncnc3)cc2O[C@@H]1CN(C)C(=O)CN(C)C | inactive: 1.01
48 | C[C@H](O)C#Cc1ccc2c(c1)O[C@@H](CN(C)C(=O)C1CCCCC1)[C@H](C)CN([C@@H](C)CO)S2(=O)=O | inactive: 0.953
49 | C[C@H]1CN([C@@H](C)CO)C(=O)Cc2cc(NS(C)(=O)=O)ccc2O[C@@H]1CN(C)S(C)(=O)=O | inactive: 0.977
50 | Nc1ncnc2[nH]c(=S)[nH]c12 | inactive: 1.01
51 | C[C@H](CO)N1C[C@H](C)[C@H](CN(C)C(=O)C2CCCCC2)Oc2cc(C#CC(C)(C)O)ccc2S1(=O)=O | inactive: 0.986
52 | CSc1nc(C)nc2ccccc12 | inactive: 0.992
53 | COc1ccc(C#Cc2ccc3c(c2)O[C@H](CN(C)C(=O)CN2CCOCC2)[C@@H](C)CN([C@H](C)CO)S3(=O)=O)cc1 | inactive: 1.01
54 | C[C@H]1CN([C@@H](C)CO)C(=O)Cc2cc(NS(=O)(=O)c3ccc(F)cc3)ccc2O[C@H]1CN(C)Cc1ccncc1 | inactive: 1.01
55 | COc1ccccc1NC(=O)N(C)C[C@H]1Oc2ncc(Br)cc2C(=O)N([C@@H](C)CO)C[C@H]1C | inactive: 0.98
56 | COc1ccc(S(=O)(=O)Nc2ccc3c(c2)C(=O)N([C@H](C)CO)C[C@H](C)[C@H](CN(C)C(=O)CCC(F)(F)F)OCCCC[C@@H](C)O3)cc1 | inactive: 0.994
57 | O=C(Cn1nnc2ccccc2c1=O)Nc1nnc[nH]1 | inactive: 0.982
58 | C=C1COC(=O)[C@@H]2[C@@H](CO)[C@@H](O)C[C@H]12 | inactive: 1.02
59 | CCC/C=C1\OC(=O)c2ccccc21 | inactive: 1.01
60 | CN(Cc1ccccc1)C[C@H]1C[C@H](c2ccccc2)O[C@H](c2ccc(NC(=O)CCCCCCC(=O)O)cc2)O1 | inactive: 0.995
61 | Cc1noc(C)c1S(=O)(=O)N(C)C[C@@H]1Oc2ccc(NC(=O)Cn3cnnn3)cc2C(=O)N([C@@H](C)CO)C[C@@H]1C | inactive: 0.995
62 | CS(=O)(=O)NC[C@@]12COC[C@H]1CN(C(=O)c1cnccn1)C2 | inactive: 0.93
